# Reference: the BET-seq Pho4 binding data (Le et al. 2018)
# The other results are listed elsewhere or left out. Values were computed here from the reads of four pooled replicates and scatter widely.
# Target: T1, Pho4 (S. cerevisiae) (UniProt P07270)
# T1 sequence: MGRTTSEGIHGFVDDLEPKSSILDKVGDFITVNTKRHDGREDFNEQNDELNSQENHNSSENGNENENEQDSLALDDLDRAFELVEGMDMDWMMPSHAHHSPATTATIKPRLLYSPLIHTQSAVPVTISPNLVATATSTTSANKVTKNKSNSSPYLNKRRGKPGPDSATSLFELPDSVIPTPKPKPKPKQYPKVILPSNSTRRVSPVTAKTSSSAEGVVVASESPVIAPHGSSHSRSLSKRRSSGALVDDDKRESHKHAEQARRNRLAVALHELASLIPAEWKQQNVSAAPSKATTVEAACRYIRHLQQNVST
# Assay: relative binding free energy (BET-seq); higher = weaker binding
# Conditions: reference: library average
row,Sequence,relative binding free energy [kcal/mol]
1,TTGGGCACGTGCGAGC,-0.18
2,TTGAGCACGTGTACGT,-0.17
3,GCTATCACGTGGGGGA,-0.02
4,GTGTTCACGTGCATGG,0.3
5,GGAGGCACGTGGTGCA,-0.22
6,GGCAGCACGTGAGTGG,0.04
7,GTAGGCACGTGTGGGT,0.06
8,CTGGTCACGTGAATGT,0.4
9,TCTTTCACGTGGCTGG,0.35
10,TCTGGCACGTGCTGTG,-0.1
11,AGGAGCACGTGTCGCG,-0.03
12,GTTCACACGTGATATT,0.31
13,TCAGGCACGTGGTTGT,-0.22
14,CTGGTCACGTGCGGTG,0.09
15,TTTTGCACGTGTTCTT,0
16,GGTGCCACGTGAAATG,0.43
17,AGTGTCACGTGTACAT,0.11
18,AATGACACGTGGGTTG,-0.04
19,TGTCTCACGTGTTGTT,0.21
20,TGCTACACGTGTGTGT,0.05
21,AGGATCACGTGCTATG,0.06
22,TGTCGCACGTGTGAGA,-0.01
23,GTTTTCACGTGAAAGT,0.38

row,Sequence,relative binding free energy [kcal/mol]
1,TCTTACACGTGGTTGA,0
2,CGTGTCACGTGTTCGA,0.11
3,TAGGACACGTGAGCGG,0.05
4,TGGGCCACGTGCTCGG,-0.19
5,GGAGTCACGTGGGTCA,0.07
6,AATTTCACGTGTTACG,0.37
7,GCGGACACGTGGCGGT,-0.16
8,TATGTCACGTGAGAAG,0.43
9,TCGTACACGTGGGATT,0.02
10,GGGTACACGTGGCATT,0.03
11,TGGGTCACGTGGTACG,0.01
12,TGGATCACGTGGTTTC,0.18
13,TGTGACACGTGGCAGA,0.05
14,TGTGGCACGTGCCGGG,-0.1
15,CGGTTCACGTGTGTGA,0.13
16,GTGGGCACGTGGCTAG,-0.19
17,AGGGGCACGTGGTAAA,-0.12
18,TGTGCCACGTGGAGTG,-0.07
19,GCGCTCACGTGATTGG,0.43
20,GGTACCACGTGTTAGG,0.11
21,ACTGTCACGTGTAAGT,0.16
22,GCTGTCACGTGCTTTG,0.09
23,TGTGCCACGTGAGAGT,0.18

row,Sequence,relative binding free energy [kcal/mol]
1,TCAGTCACGTGGAGTG,-0.04
2,GGTGCCACGTGTTAGA,-0.11
3,ACAATCACGTGGGTGG,0.07
4,AGCGGCACGTGTGCGA,-0.11
5,ATGATCACGTGTGTTT,0.25
6,AGTTGCACGTGGTCCG,-0.14
7,TGTATCACGTGAGGTT,0.22
8,CAGTGCACGTGAGTGG,0.19
9,CGGGACACGTGAATGT,0.42
10,GTTGACACGTGAATGT,0.17
11,ATTGCCACGTGGGTAA,-0.21
12,AACATCACGTGGTTGT,0.16
13,GCGGGCACGTGGAGTG,-0.06
14,AAGTGCACGTGATGAT,0.08
15,GTCATCACGTGGGGGG,0.07
16,GTGAACACGTGGATTG,0
17,GACTGCACGTGGGGTA,-0.11
18,GGAGTCACGTGTCTGT,0.26
19,GAATGCACGTGTTTTT,0.16
20,GGGTTCACGTGGTACA,0.25
21,AGTGACACGTGAGTGT,0.24
22,TAAGTCACGTGAGAGT,0.53
23,GTAGACACGTGTTAGG,0.08

row,Sequence,relative binding free energy [kcal/mol]
1,GTGATCACGTGTTTTA,0.24
2,ACGTGCACGTGGGAAG,-0.06
3,GTTCGCACGTGCGGAT,0.07
4,CAGGACACGTGTTAGG,0.1
5,CAAGGCACGTGTTGTA,0.04
6,GGATACACGTGGGGGC,-0.12
7,CGTTTCACGTGTATAT,0.35
8,GGACGCACGTGTTTGA,0.02
9,ATTGGCACGTGCTGGG,-0.17
10,TGTATCACGTGGCTGA,-0.06
11,TGTTTCACGTGGGCTT,0.16
12,GGATGCACGTGTGGGG,0.13
13,ACGATCACGTGTTTTT,0.17
14,GGTAGCACGTGTTTGC,0.02
15,TCAGTCACGTGAGTAG,0.38
16,TATTGCACGTGGTTGC,-0.12
17,TGCTGCACGTGTGTCG,-0.15
18,AGGTGCACGTGCCGTT,-0.23
19,AGTGTCACGTGCTGAG,0.08
20,TTATGCACGTGGTTTC,-0.28
21,GTGAGCACGTGTTTAT,-0.12
22,ATGATCACGTGGGGGT,-0.09
23,TTTACCACGTGAAGGG,0.21

row,Sequence,relative binding free energy [kcal/mol]
1,TTCATCACGTGGTGGA,0.13
2,AAGTTCACGTGTCGGT,0.18
3,TATTGCACGTGGAGTA,-0.16
4,GTAGGCACGTGTGGCT,0.1
5,GTTTGCACGTGCTGTG,0.01
6,ATTGGCACGTGTATGG,-0.1
7,TGGATCACGTGCGCGG,0.07
8,AATTGCACGTGGTACG,-0.1
9,TGTTGCACGTGCGGCC,-0.01
10,TTGGCCACGTGTTGCG,-0.09
11,GAAGTCACGTGGGGAC,0.09
12,GTTTGCACGTGTGCTT,0.09
13,TGCGGCACGTGCTTGT,-0.13
14,ATTGTCACGTGAGATA,0.2
15,ATTTACACGTGCGTGA,0.06
16,CAGGGCACGTGGTCGT,-0.29
17,TCGGTCACGTGTTTTG,0.09
18,GTGGTCACGTGATTCT,0.31
19,TTAACCACGTGGTTTG,-0.09
20,TGTTTCACGTGACCTG,0.31
21,GGAAACACGTGATAGG,0.27
22,AGTGTCACGTGACATT,0.18
23,TCGGTCACGTGGCTTG,-0.04
